Measured values: US20200199241A1 (Chugai, published 2020)

What follows are binders tested against T1, human FcRn (soluble human FcRn complexed with β2-microglobulin) (human, UniProt P61769 in part, limits assumed) (assay: SPR, pH 7.0;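 further: antibodies captured on a Protein L sensor chip with human FcRn injected as analyte, KD calculated from fitted association and dissociation rate constants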).
T1 construct: also called hFcRn

Kd [µM]	Binder
1.7	IgG1-F43 (antibody, EU numbering; copies: 2 + 2) heavy: QVQLQESGPGLVKPSETLSLTCAVSGHSISHDHAWSWVRQPPGEGLEWIGFISYSGITNYNPSLQGRVTISRDNSKNTLYLQMNSLRAEDTAVYYCARSLARTTAMDYWGEGTLVTVSS[here human IgG1 constant region with M252Y N434A (EU numbers) without letters] light: DIQMTQSPSSLSASVGDRVTITCRASQDISSYLNWYQQKPGKAPKLLIYYTSRLHSGVPSRFSGSGSGTDFTFTISSLQPEDIATYYCQQGNTLPYTFGQGTKVEIKRTVAAPSVFIFPPSDEQLKSGTASVVCLLNNFYPREAKVQWKVDNALQSGNSQESVTEQDSKDSTYSLSSTLTLSKADYEKHKVYACEVTHQGLSSPVTKSFNRGEC
0.97	IgG1-F61 (antibody, EU numbering; copies: 2 + 2) heavy: QVQLQESGPGLVKPSETLSLTCAVSGHSISHDHAWSWVRQPPGEGLEWIGFISYSGITNYNPSLQGRVTISRDNSKNTLYLQMNSLRAEDTAVYYCARSLARTTAMDYWGEGTLVTVSS[here human IgG1 constant region with G385H N434W (EU numbers) without letters] light: DIQMTQSPSSLSASVGDRVTITCRASQDISSYLNWYQQKPGKAPKLLIYYTSRLHSGVPSRFSGSGSGTDFTFTISSLQPEDIATYYCQQGNTLPYTFGQGTKVEIKRTVAAPSVFIFPPSDEQLKSGTASVVCLLNNFYPREAKVQWKVDNALQSGNSQESVTEQDSKDSTYSLSSTLTLSKADYEKHKVYACEVTHQGLSSPVTKSFNRGEC
1	IgG1-F53 (antibody, EU numbering; copies: 2 + 2) heavy: QVQLQESGPGLVKPSETLSLTCAVSGHSISHDHAWSWVRQPPGEGLEWIGFISYSGITNYNPSLQGRVTISRDNSKNTLYLQMNSLRAEDTAVYYCARSLARTTAMDYWGEGTLVTVSS[here human IgG1 constant region with I332V N434W (EU numbers) without letters] light: DIQMTQSPSSLSASVGDRVTITCRASQDISSYLNWYQQKPGKAPKLLIYYTSRLHSGVPSRFSGSGSGTDFTFTISSLQPEDIATYYCQQGNTLPYTFGQGTKVEIKRTVAAPSVFIFPPSDEQLKSGTASVVCLLNNFYPREAKVQWKVDNALQSGNSQESVTEQDSKDSTYSLSSTLTLSKADYEKHKVYACEVTHQGLSSPVTKSFNRGEC
1.5	IgG1-F70 (antibody, EU numbering; copies: 2 + 2) heavy: QVQLQESGPGLVKPSETLSLTCAVSGHSISHDHAWSWVRQPPGEGLEWIGFISYSGITNYNPSLQGRVTISRDNSKNTLYLQMNSLRAEDTAVYYCARSLARTTAMDYWGEGTLVTVSS[here human IgG1 constant region with M428L N434Y (EU numbers) without letters] light: DIQMTQSPSSLSASVGDRVTITCRASQDISSYLNWYQQKPGKAPKLLIYYTSRLHSGVPSRFSGSGSGTDFTFTISSLQPEDIATYYCQQGNTLPYTFGQGTKVEIKRTVAAPSVFIFPPSDEQLKSGTASVVCLLNNFYPREAKVQWKVDNALQSGNSQESVTEQDSKDSTYSLSSTLTLSKADYEKHKVYACEVTHQGLSSPVTKSFNRGEC
8.7	IgG1-F116 (antibody, EU numbering; copies: 2 + 2) heavy: QVQLQESGPGLVKPSETLSLTCAVSGHSISHDHAWSWVRQPPGEGLEWIGFISYSGITNYNPSLQGRVTISRDNSKNTLYLQMNSLRAEDTAVYYCARSLARTTAMDYWGEGTLVTVSS[here human IgG1 constant region with E380A N434A (EU numbers) without letters] light: DIQMTQSPSSLSASVGDRVTITCRASQDISSYLNWYQQKPGKAPKLLIYYTSRLHSGVPSRFSGSGSGTDFTFTISSLQPEDIATYYCQQGNTLPYTFGQGTKVEIKRTVAAPSVFIFPPSDEQLKSGTASVVCLLNNFYPREAKVQWKVDNALQSGNSQESVTEQDSKDSTYSLSSTLTLSKADYEKHKVYACEVTHQGLSSPVTKSFNRGEC
6.6	IgG1-F115 (antibody, EU numbering; copies: 2 + 2) heavy: QVQLQESGPGLVKPSETLSLTCAVSGHSISHDHAWSWVRQPPGEGLEWIGFISYSGITNYNPSLQGRVTISRDNSKNTLYLQMNSLRAEDTAVYYCARSLARTTAMDYWGEGTLVTVSS[here human IgG1 constant region with T307A N434A (EU numbers) without letters] light: DIQMTQSPSSLSASVGDRVTITCRASQDISSYLNWYQQKPGKAPKLLIYYTSRLHSGVPSRFSGSGSGTDFTFTISSLQPEDIATYYCQQGNTLPYTFGQGTKVEIKRTVAAPSVFIFPPSDEQLKSGTASVVCLLNNFYPREAKVQWKVDNALQSGNSQESVTEQDSKDSTYSLSSTLTLSKADYEKHKVYACEVTHQGLSSPVTKSFNRGEC
0.51	IgG1-F69 (antibody, EU numbering; copies: 2 + 2) heavy: QVQLQESGPGLVKPSETLSLTCAVSGHSISHDHAWSWVRQPPGEGLEWIGFISYSGITNYNPSLQGRVTISRDNSKNTLYLQMNSLRAEDTAVYYCARSLARTTAMDYWGEGTLVTVSS[here human IgG1 constant region with M428L N434W (EU numbers) without letters] light: DIQMTQSPSSLSASVGDRVTITCRASQDISSYLNWYQQKPGKAPKLLIYYTSRLHSGVPSRFSGSGSGTDFTFTISSLQPEDIATYYCQQGNTLPYTFGQGTKVEIKRTVAAPSVFIFPPSDEQLKSGTASVVCLLNNFYPREAKVQWKVDNALQSGNSQESVTEQDSKDSTYSLSSTLTLSKADYEKHKVYACEVTHQGLSSPVTKSFNRGEC
0.93	IgG1-F68 (antibody, EU numbering; copies: 2 + 2) heavy: QVQLQESGPGLVKPSETLSLTCAVSGHSISHDHAWSWVRQPPGEGLEWIGFISYSGITNYNPSLQGRVTISRDNSKNTLYLQMNSLRAEDTAVYYCARSLARTTAMDYWGEGTLVTVSS[here human IgG1 constant region with M252Y N434H (EU numbers) without letters] light: DIQMTQSPSSLSASVGDRVTITCRASQDISSYLNWYQQKPGKAPKLLIYYTSRLHSGVPSRFSGSGSGTDFTFTISSLQPEDIATYYCQQGNTLPYTFGQGTKVEIKRTVAAPSVFIFPPSDEQLKSGTASVVCLLNNFYPREAKVQWKVDNALQSGNSQESVTEQDSKDSTYSLSSTLTLSKADYEKHKVYACEVTHQGLSSPVTKSFNRGEC
1.9	IgG1-F62 (antibody, EU numbering; copies: 2 + 2) heavy: QVQLQESGPGLVKPSETLSLTCAVSGHSISHDHAWSWVRQPPGEGLEWIGFISYSGITNYNPSLQGRVTISRDNSKNTLYLQMNSLRAEDTAVYYCARSLARTTAMDYWGEGTLVTVSS[here human IgG1 constant region with G385H N434Y (EU numbers) without letters] light: DIQMTQSPSSLSASVGDRVTITCRASQDISSYLNWYQQKPGKAPKLLIYYTSRLHSGVPSRFSGSGSGTDFTFTISSLQPEDIATYYCQQGNTLPYTFGQGTKVEIKRTVAAPSVFIFPPSDEQLKSGTASVVCLLNNFYPREAKVQWKVDNALQSGNSQESVTEQDSKDSTYSLSSTLTLSKADYEKHKVYACEVTHQGLSSPVTKSFNRGEC
2.6	IgG1-F83 (antibody, EU numbering; copies: 2 + 2) heavy: QVQLQESGPGLVKPSETLSLTCAVSGHSISHDHAWSWVRQPPGEGLEWIGFISYSGITNYNPSLQGRVTISRDNSKNTLYLQMNSLRAEDTAVYYCARSLARTTAMDYWGEGTLVTVSS[here human IgG1 constant region with T256Q N434Y (EU numbers) without letters] light: DIQMTQSPSSLSASVGDRVTITCRASQDISSYLNWYQQKPGKAPKLLIYYTSRLHSGVPSRFSGSGSGTDFTFTISSLQPEDIATYYCQQGNTLPYTFGQGTKVEIKRTVAAPSVFIFPPSDEQLKSGTASVVCLLNNFYPREAKVQWKVDNALQSGNSQESVTEQDSKDSTYSLSSTLTLSKADYEKHKVYACEVTHQGLSSPVTKSFNRGEC
1.1	IgG1-F44 (antibody, EU numbering; copies: 2 + 2) heavy: QVQLQESGPGLVKPSETLSLTCAVSGHSISHDHAWSWVRQPPGEGLEWIGFISYSGITNYNPSLQGRVTISRDNSKNTLYLQMNSLRAEDTAVYYCARSLARTTAMDYWGEGTLVTVSS[here human IgG1 constant region with M252W N434A (EU numbers) without letters] light: DIQMTQSPSSLSASVGDRVTITCRASQDISSYLNWYQQKPGKAPKLLIYYTSRLHSGVPSRFSGSGSGTDFTFTISSLQPEDIATYYCQQGNTLPYTFGQGTKVEIKRTVAAPSVFIFPPSDEQLKSGTASVVCLLNNFYPREAKVQWKVDNALQSGNSQESVTEQDSKDSTYSLSSTLTLSKADYEKHKVYACEVTHQGLSSPVTKSFNRGEC
0.084	IgG1-F54 (antibody, EU numbering; copies: 2 + 2) heavy: QVQLQESGPGLVKPSETLSLTCAVSGHSISHDHAWSWVRQPPGEGLEWIGFISYSGITNYNPSLQGRVTISRDNSKNTLYLQMNSLRAEDTAVYYCARSLARTTAMDYWGEGTLVTVSS[here human IgG1 constant region with V308P N434W (EU numbers) without letters] light: DIQMTQSPSSLSASVGDRVTITCRASQDISSYLNWYQQKPGKAPKLLIYYTSRLHSGVPSRFSGSGSGTDFTFTISSLQPEDIATYYCQQGNTLPYTFGQGTKVEIKRTVAAPSVFIFPPSDEQLKSGTASVVCLLNNFYPREAKVQWKVDNALQSGNSQESVTEQDSKDSTYSLSSTLTLSKADYEKHKVYACEVTHQGLSSPVTKSFNRGEC
11	IgG1-F60 (antibody, EU numbering; copies: 2 + 2) heavy: QVQLQESGPGLVKPSETLSLTCAVSGHSISHDHAWSWVRQPPGEGLEWIGFISYSGITNYNPSLQGRVTISRDNSKNTLYLQMNSLRAEDTAVYYCARSLARTTAMDYWGEGTLVTVSS[here human IgG1 constant region with G385H (EU numbers) without letters] light: DIQMTQSPSSLSASVGDRVTITCRASQDISSYLNWYQQKPGKAPKLLIYYTSRLHSGVPSRFSGSGSGTDFTFTISSLQPEDIATYYCQQGNTLPYTFGQGTKVEIKRTVAAPSVFIFPPSDEQLKSGTASVVCLLNNFYPREAKVQWKVDNALQSGNSQESVTEQDSKDSTYSLSSTLTLSKADYEKHKVYACEVTHQGLSSPVTKSFNRGEC
1.1	IgG1-F82 (antibody, EU numbering; copies: 2 + 2) heavy: QVQLQESGPGLVKPSETLSLTCAVSGHSISHDHAWSWVRQPPGEGLEWIGFISYSGITNYNPSLQGRVTISRDNSKNTLYLQMNSLRAEDTAVYYCARSLARTTAMDYWGEGTLVTVSS[here human IgG1 constant region with T256Q N434W (EU numbers) without letters] light: DIQMTQSPSSLSASVGDRVTITCRASQDISSYLNWYQQKPGKAPKLLIYYTSRLHSGVPSRFSGSGSGTDFTFTISSLQPEDIATYYCQQGNTLPYTFGQGTKVEIKRTVAAPSVFIFPPSDEQLKSGTASVVCLLNNFYPREAKVQWKVDNALQSGNSQESVTEQDSKDSTYSLSSTLTLSKADYEKHKVYACEVTHQGLSSPVTKSFNRGEC
